# Results from paper PMC7819943, “Rice protein-binding microarrays: a tool to detect cis-acting elements near promoter regions in rice”.
# The list shows a part of the results.
# Molecular target: T1, OsWOX13 (Oryza sativa, UniProt Q5QMM3 1-267)
# T1 sequence: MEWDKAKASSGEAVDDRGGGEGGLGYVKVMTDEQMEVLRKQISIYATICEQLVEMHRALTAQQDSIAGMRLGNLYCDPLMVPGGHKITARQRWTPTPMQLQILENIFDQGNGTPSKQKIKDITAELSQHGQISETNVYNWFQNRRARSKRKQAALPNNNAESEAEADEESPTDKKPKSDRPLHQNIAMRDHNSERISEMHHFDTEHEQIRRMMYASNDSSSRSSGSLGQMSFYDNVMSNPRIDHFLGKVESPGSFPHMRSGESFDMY
# Assay: protein-binding microarray (RPBM); PBS, 2% BSA, 51.3 ng/ul salmon testes DNA, 50 uM zinc acetate, 200 nM TF, 25 C, 1 h; high values mean tight binding
# Details: protein: recombinant; tags: N-terminal polyhistidine and DsRed monomer fusion (pET32a); label: CyDye5-dUTP incorporated in the synthesized complementary strand; 3' TTTTT single-stranded linker to array surface; dsDNA, one strand shown
# Method in brief: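 Polyhistidine-tagged DsRed fusions of transcription factors, joined at the N-terminus, were expressed in E. coli BL21-CodonPlus and isolated on Ni–NTA. They were incubated at 200 nM for 1 h at 25 °C on a custom Agilent array, double-stranded and BSA-blocked, in PBS with 2% BSA, salmon testes DNA and 50 µM zinc acetate. The binding signal is per-feature fluorescence intensity (arbitrary units) read on an Axon 4000B scanner after washing.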
row,Sequence,binding signal
1,ATATGGATGATTTGTTGGAGTAGGTAAATATATGGAGGAGCGGAGTCACCTAGTGCAG,12400 fluorescence intensity (a.u.)
2,ATTTAGATGACATGCAAACAGATGAAAATCCACATTCCTCCGGAGTCACCTAGTGCAG,4060 fluorescence intensity (a.u.)
3,GATTAATTCATTATTAATTATTATACACTTAAAATATAGACGGAGTCACCTAGTGCAG,14000 fluorescence intensity (a.u.)
4,ACAAACTGAATGCCACCAAAATCGAATCGCTACAAACCCTCGGAGTCACCTAGTGCAG,3610 fluorescence intensity (a.u.)
5,AGGGTGGGAATGGATTTAAATTGAAGGTATACGTATGGTTCGGAGTCACCTAGTGCAG,13300 fluorescence intensity (a.u.)
6,AGCTAATACTTAATTAATCACACGCTAATGGACTGCTCCGCGGAGTCACCTAGTGCAG,16700 fluorescence intensity (a.u.)
7,CCTAATCAGTACCTAAATCAACAAAACTAGTCGTGTAATGCGGAGTCACCTAGTGCAG,5610 fluorescence intensity (a.u.)
8,TCTCATAAATGTGTCAATCACATTTTCTCCCACATATCGACGGAGTCACCTAGTGCAG,29900 fluorescence intensity (a.u.)
9,AAAACTGAATTTGAGATGATATGTAACCGTTAGATGGGAGCGGAGTCACCTAGTGCAG,3210 fluorescence intensity (a.u.)
10,AATGTACCATTAATTGTGTACAACCAATGTACAGATAGGCCGGAGTCACCTAGTGCAG,3770 fluorescence intensity (a.u.)
11,CCTGGTCTTTGATTGGTCCACGTGGCGCAGCGAGAATTCACGGAGTCACCTAGTGCAG,12400 fluorescence intensity (a.u.)
12,GAAAATAGACTTATTCCTAAATGTATGATCGGACTTGGATCGGAGTCACCTAGTGCAG,9250 fluorescence intensity (a.u.)
13,TTGCATGATTGCCTCCAAAATATATACGACCAGCGATCGACGGAGTCACCTAGTGCAG,23700 fluorescence intensity (a.u.)
14,CAAATTTCGTCGTTAACAGTTTGTCCTGAAAACCTTCCGTCGGAGTCACCTAGTGCAG,7630 fluorescence intensity (a.u.)
15,TAAATTGAGAATCGAGGATTGACTATGTGTAAATAAATATCGGAGTCACCTAGTGCAG,3630 fluorescence intensity (a.u.)
16,TCACTAATCAATCTCTCGCGTTCTTGGCCGCCGTCTCCATCGGAGTCACCTAGTGCAG,21300 fluorescence intensity (a.u.)
17,GCTAATAATTTTGATTTAGAACTAGAGGCTAAGCCAGAGACGGAGTCACCTAGTGCAG,20100 fluorescence intensity (a.u.)
18,AATTGACTGGTTTAATCTCTGTTCGTACCCAAAATATAGCCGGAGTCACCTAGTGCAG,25000 fluorescence intensity (a.u.)
19,ATAAATTTTATAGTTTGCCATAGTTTTATCTAATATAGTTCGGAGTCACCTAGTGCAG,3890 fluorescence intensity (a.u.)
20,GAGAATAGTTATAATTGGTTGATAGGAGAGGGTAGGTAGACGGAGTCACCTAGTGCAG,10400 fluorescence intensity (a.u.)
21,ACTTCTAATCACCCTTTCTTTAATGAGGAACATCTAAATACGGAGTCACCTAGTGCAG,5460 fluorescence intensity (a.u.)

row,Sequence,binding signal
1,TGACCACTTGATGGATTGTTAGAAGTTTCAGTTGGCAGTACGGAGTCACCTAGTGCAG,7400 fluorescence intensity (a.u.)
2,TTTTGACATTAATCTCTTGGTGTTCTTCTCTTTGTCTGCTCGGAGTCACCTAGTGCAG,5110 fluorescence intensity (a.u.)
3,TTTAATTAATCCCGTCTCCTCATTCGTCGCCGCCCTCGCACGGAGTCACCTAGTGCAG,26500 fluorescence intensity (a.u.)
4,GCATGACTGATTGGTCACAAGGTTCTCTGCCCCTTGCCTGCGGAGTCACCTAGTGCAG,37800 fluorescence intensity (a.u.)
5,ATTTGTATATTAAATTATCAGTTTGTGTACCTCGGCTGATCGGAGTCACCTAGTGCAG,6080 fluorescence intensity (a.u.)
6,GATTAAAGCATGATTAATTACTAAGTATTAACCATTGTAACGGAGTCACCTAGTGCAG,9280 fluorescence intensity (a.u.)
7,CAGTGACATGTGTATGATAGATGGGACTAGGTATTAATTGCGGAGTCACCTAGTGCAG,12000 fluorescence intensity (a.u.)
8,CATTAATTAACTTGACTCCATATTTAACTACTCTGCTTCCCGGAGTCACCTAGTGCAG,30400 fluorescence intensity (a.u.)
9,ATCTTTAATTAGGATTAGGAAGAAGAGCCGAAGGGACTCGCGGAGTCACCTAGTGCAG,16100 fluorescence intensity (a.u.)
10,GTTGTACTTTAATTTGATATGATGATGGTTATGTTATCATCGGAGTCACCTAGTGCAG,6410 fluorescence intensity (a.u.)
11,ATGTAATTTGTTTTATTATTAGACTACGATTAATTTACGCCGGAGTCACCTAGTGCAG,32300 fluorescence intensity (a.u.)
12,CGGCCCATCGGCTGATTGAAACCATGGGCTGGTATATTCGCGGAGTCACCTAGTGCAG,16800 fluorescence intensity (a.u.)
13,GACCGGATTGATTTCATAAGAATTCAAATCGAATACTTGTCGGAGTCACCTAGTGCAG,29400 fluorescence intensity (a.u.)
14,AACGTATTTGGCCCAATTAAGTATATACATATGTAATGCGCGGAGTCACCTAGTGCAG,3420 fluorescence intensity (a.u.)
15,CTTAAATGAAGCATTTTGTCTATTGGCGTTGTAGTAAGGACGGAGTCACCTAGTGCAG,5220 fluorescence intensity (a.u.)
16,TCTTTGAATTAGCTGCTAAATTGGGCAAAATTCCGCTTGCCGGAGTCACCTAGTGCAG,8240 fluorescence intensity (a.u.)
17,TTTTACCGGTAATTGGTGCCTCACATATTGATACTTCCAACGGAGTCACCTAGTGCAG,22600 fluorescence intensity (a.u.)
18,CTTAATCAAGCTAATGATTTTCTCATTTTACATGTTTTACCGGAGTCACCTAGTGCAG,12500 fluorescence intensity (a.u.)
19,TTAGATTGGTTATAGATGAATTGGAGCTAGTAGTGGGTTGCGGAGTCACCTAGTGCAG,56200 fluorescence intensity (a.u.)
20,AAAATTAACACCAATCATAATTTCATAATAATCCATTTCACGGAGTCACCTAGTGCAG,36900 fluorescence intensity (a.u.)
21,TAATAATAAATAATCAACAAACACACACGACGTATTGTAACGGAGTCACCTAGTGCAG,4850 fluorescence intensity (a.u.)
